According to the supplement of paper PMC3334620:
Over roughly 33,000 sequences, “E-score (-0.5 to 0.5)” has its median near -0.012; the highest 2% begin near 0.29. The list shows a part of the results.

biological target: T1, Ybr033w (UniProt P38073); assay: PBM E-score (8-mer binding enrichment) (E-score (-0.5 to 0.5)); higher = stronger / more preferred TF binding; most listed sequences are background and not binding sites; details: protein concentration: 200 nM; construct: GST-full length
T1 sequence: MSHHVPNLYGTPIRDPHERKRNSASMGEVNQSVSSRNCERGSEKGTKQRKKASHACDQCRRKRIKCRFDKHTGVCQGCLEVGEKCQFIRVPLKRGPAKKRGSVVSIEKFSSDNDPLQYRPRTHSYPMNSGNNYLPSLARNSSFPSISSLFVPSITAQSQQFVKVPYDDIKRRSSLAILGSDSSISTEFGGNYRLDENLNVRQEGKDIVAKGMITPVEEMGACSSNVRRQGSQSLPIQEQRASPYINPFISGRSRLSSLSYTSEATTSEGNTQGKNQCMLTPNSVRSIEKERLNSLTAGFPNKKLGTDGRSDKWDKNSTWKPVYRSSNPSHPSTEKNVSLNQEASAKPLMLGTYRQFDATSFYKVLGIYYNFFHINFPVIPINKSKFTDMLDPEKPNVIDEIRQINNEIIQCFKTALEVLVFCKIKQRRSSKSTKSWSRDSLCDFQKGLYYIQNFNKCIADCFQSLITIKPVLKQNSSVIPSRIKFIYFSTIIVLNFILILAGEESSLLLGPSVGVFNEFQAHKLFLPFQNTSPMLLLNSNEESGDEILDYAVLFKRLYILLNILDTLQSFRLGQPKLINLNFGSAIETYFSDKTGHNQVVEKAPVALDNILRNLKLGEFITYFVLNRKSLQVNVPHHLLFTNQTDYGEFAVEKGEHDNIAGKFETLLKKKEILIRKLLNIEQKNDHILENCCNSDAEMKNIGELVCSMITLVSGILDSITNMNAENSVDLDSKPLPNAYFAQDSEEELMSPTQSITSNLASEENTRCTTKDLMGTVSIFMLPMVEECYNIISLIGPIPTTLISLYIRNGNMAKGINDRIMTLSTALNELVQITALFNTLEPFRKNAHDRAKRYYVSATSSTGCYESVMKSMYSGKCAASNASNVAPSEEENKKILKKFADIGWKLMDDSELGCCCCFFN
Protocol: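 Universal 'all 10-mer' protein binding microarrays (Agilent AMADID 015681) probed with GST-tagged S. cerevisiae TFs (full-length or DBD) made by in vitro transcription/translation (PURExpress), about 100-200 nM. Bound TF was detected with fluorescent anti-GST. Each ungapped 8-mer (which stands for itself and its reverse complement) is scored by the PBM enrichment score (E-score), a modified Wilcoxon-Mann-Whitney statistic from -0.5 to +0.5, computed with the Universal PBM Analysis Suite. Scale: above 0.35 generally sequence-specific binding.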

Sequence	PBM E-score
TAAGCCGA	0.113
AAGTGAGC	-0.0662
ACGACCTG	-0.179
CCCACACA	-0.13
GGGGATGA	-0.126
ACTTCTGA	0.0394
CAAACAAC	0.166
ATAAACCC	0.165
GTAAGCTA	0.0775
ACTACCTC	-0.0777
GACAACGC	-0.145
AAGAATCG	0.15
CCTGATGA	0.0306
AGCGTCAG	-0.119
ACTTCGTA	0.0589
ACTTACCC	0.114
GCCACCCA	-0.201
ATCAATTG	0.252
CTCTTTGA	-0.0179
ACCTCGCG	-0.105
ATGAAGGA	0.224
CAATTGAA	0.00129
GTTATGAA	0.217
ACGTGCAG	-0.233
CCGTTGCA	-0.134

Sequence	PBM E-score
CGCTGAAG	-0.091
ACCTACCG	-0.0859
GAGTCATC	-0.0578
AACTCCTT	0.0698
CTGGATGC	-0.181
CAAAGAAA	0.0776
TTCCGGAA	0.316
AAATCCGT	0.0801
GACTCTCC	-0.336
GACTGACA	0.016
AAGCTACT	0.0682
ATTCGGTG	0.0604
AGAGTCCA	-0.0928
ACCTTGCG	0.0216
CTACCGGC	-0.28
CGTGCTCC	-0.164
GCTCCATA	-0.175
ACCCCGGG	-0.327
GGGAGTCA	-0.226
ATTATCGG	0.0549
GACAGAAC	0.124
ACCCCATG	0.026
ATAACCAT	0.0101
CTGCAAGA	0.0509
ACAGTTTG	0.00732

Sequence	PBM E-score
AAGCTAAA	0.107
CAGTTGCG	0.0591
AGCGGGCA	-0.253
CGGTCACC	-0.232
ATTTTGAG	0.228
CAAATGGA	0.161
CAAGCCAG	-0.0473
AGCCTATC	-0.231
ACTGTACG	-0.167
ATAACGTG	-0.0946
ACACTGGT	-0.0783
AATCCACC	-0.07
CGAGCCAG	0.00891
CCGTACAA	0.0114
CACAAAAA	0.233
CACTAGCC	-0.1
ATGTGCAA	-0.00136
ATATGAAG	0.0849
GCTGGTTA	-0.0645
CATACCAG	-0.0355
ATGTCGCC	-0.137
AAAGTTAG	0.297
TAAGTAAA	0.105
AGGAAATG	0.146
AACAGCTC	-0.106

Sequence	PBM E-score
GCGCCCCA	-0.237
AGCAGGTG	0.102
ACGATTAT	0.133
AACCGCCT	0.0265
GATGACGC	-0.0995
AGTATTTG	0.159
AGAGCAAC	-0.226
GAAAGACA	0.145
CGCATGGC	-0.141
CGGCAATC	-0.0982
ACATACCA	-0.143
CTCATTCC	0.148
GGTCGGGA	0.0545
ACGTAACT	0.0228
CCGGATCG	-0.141
ATTGCGGG	0.147
AACGTTAT	0.101
AGCGCTAT	0.179
AAGACCGA	0.126
GCAGTTCA	-0.00057
CGTTCTGA	-0.0104
CCGGGTTA	0.0138
CAGGTTTC	0.143
AGAACTCG	0.0115
AGTCACGA	-0.204

Sequence	PBM E-score
CTCTCACA	0.0894
CCGGAGGC	-0.267
CGTTACTA	0.0748
AAGCGCTC	-0.00157
CTGTGAGA	-0.0752
GTGTGCCA	-0.144
ATTATCCG	0.469
AAGTCAAT	0.216
ATTCCTAC	0.00845
GACATATA	0.185
TCAAACGA	0.134
CACGGACA	-0.164
TACTGCGA	0.0219
AGGCCCCT	-0.39
CATTTTAC	0.298
ATTCATTC	0.277
AGACATCC	-2e-05
AGCCATAA	-0.0065
GAGACTTA	-0.107
AAGCGTAA	0.103
CTCCATGA	0.0454
GTAAGTAC	-0.0356
CTTATGCA	0.164
AGATTACC	0.117
ACCAAATC	0.105

Sequence	PBM E-score
AGGTTCTC	-0.112
CTTCGGCA	-0.057
GCCTGCTA	-0.109
CCACCCAC	-0.155
AGTGAGGC	-0.0821
AGCACGAA	0.134
ATCTGGCC	-0.145
GTCTTGTA	-0.116
ATACCGCC	-0.0566
TAATTGCA	0.187
GTCTAGAC	-0.252
CCTCCCAC	-0.188
TAATGGTA	0.136
TAGTAACA	0.141
AAATTGTA	0.22
GCAGCTTA	-0.12
CCCCAAGA	-0.0572
ACGAGTTA	0.213
ATTGTATG	0.14
AATGCCTC	-0.102
CAGCCGTC	-0.0893
CGCTATTC	0.177
GCAGCCTA	-0.0605
GTGCATTA	0.129
TGTATACA	0.341

Sequence	PBM E-score
CGAATCCA	0.0137
ATTTAAGC	0.173
ACACCCAG	-0.126
TCCCTTCA	-0.122
AACATCGG	-0.0458
CTATCCAA	-0.0816
AATAAGGG	-0.0487
AGCATCTA	0.0135
GGCACCTA	-0.213
CACATCGG	-0.0334
AGTCGAGC	-0.229
AGTAATTC	0.318
AAACATTG	0.113
AGAGAATA	0.234
CATATGTA	0.0437
CTGTCCTC	-0.154
ACGCTACG	-0.12
GACGTAGC	-0.147
CGTAAACA	0.162
GTATGTGA	0.0688
GTCAGGTA	-0.0885
ATAGAGCA	0.166
CTTCATTA	0.291
TAGCTTCA	0.0579
CGACATGA	-0.0827

Sequence	PBM E-score
GGACCAAC	-0.182
AGCTGACG	-0.119
ATATTCTA	0.217
AAATGGGC	-0.0811
CGAGGTAC	-0.0291
TAGTGATA	0.0686
CTACTTCC	-0.0236
AAACGAAC	0.121
CGCTACCA	-0.151
GGAGATGA	-0.121
TACGAGCA	0.0219
GGTGATGA	0.0123
CAACACCA	-0.0261
CATCAACC	0.259
CATTTTGC	0.211
GGTCAACA	0.0823
AGGGATAC	-0.0966
AACCAGCG	-0.0714
CCTTTTCC	-0.15
GTTGCTGA	0.0842
ACAAACAC	0.186
CATTAGCG	-0.0295
AGCGCATG	-0.226
AGAGATGA	-0.0776
ATGCTCAG	0.125

Sequence	PBM E-score
AGCAGAAA	0.134
GTTCATGA	0.236
CTCAATAC	0.12
ACTTTGAC	0.127
ATGAAGCA	-0.0134
AACCCAAC	5e-05
ACTAGAAA	0.185
GATTCCTA	0.135
TAGTCCCA	-0.126
TGATCCAA	0.165
AAGTGGCC	-0.135
ATTGCGTA	0.109
ATAGCTAT	0.13
CATCCGCG	-0.117
AATGACGT	-0.102
AAGTACTA	0.25
ATAAGGAT	0.297
CGTAATGA	-0.0174
CTTGAAGA	-0.0808
